# Measurements published in the supplement of paper PMC9446081.
# The campaign covered roughly 39,000 compounds. About 220 (0.56%) showed activity. Some of the results follow.
# Test system: Escherichia coli K-12 BW25113
# Test: relative growth (OD600 normalised to plate interquartile mean) (fraction); higher = less growth inhibition, active = 0.2 or less
# Conditions: 50 µM; LB; incubation time: overnight (16-24 h)
# 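Note: static incubation at 37 °C against the wild-type strain, values averaged over two biological replicates.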
row,SMILES,relative growth
1,C[C@@H]1CN([C@@H](C)CO)C(=O)Cc2cc(NC(=O)C3CCCCC3)ccc2O[C@@H]1CN(C)Cc1ccc(Cl)c(Cl)c1,inactive: 1
2,CC(C)(C)OC(=O)C[C@H]1CC=CC[C@@H](CC(=O)N[C@H](CO)Cc2ccccc2)C(=O)N2CCC[C@@H]2COC1=O,inactive: 0.975
3,COc1ccc(NC(=O)N(C)C[C@@H]2Oc3ccc(NC(=O)CCN4CCOCC4)cc3CC(=O)N([C@H](C)CO)C[C@@H]2C)cc1,inactive: 1.01
4,CC(C)=CCCC(C)=CCO,inactive: 0.885
5,CCS(=O)(=O)Nc1ccc2c(c1)C(=O)N(C)[C@H]1CC[C@@H](CC(=O)N3CCN(C)CC3)O[C@@H]1CO2,inactive: 0.903
6,C[C@@H]1CN([C@H](C)CO)C(=O)c2c(c3ccccc3n2C)-c2ccccc2CO[C@@H]1CN(C)C(=O)Nc1cccc(F)c1,inactive: 1.03
7,O=C(CN1CCNCC1)NC1CCCCC1,inactive: 1
8,CC(C)NC(=O)N(C)C[C@H]1Oc2cc(C#Cc3cccc(F)c3)ccc2S(=O)(=O)N([C@@H](C)CO)C[C@H]1C,inactive: 0.989
9,C[C@H](CO)N1C[C@H](C)[C@@H](CN(C)C(=O)Nc2cccc3ccccc23)Oc2ccc(NC(=O)Nc3ccc(C(F)(F)F)cc3)cc2CC1=O,inactive: 1.04
10,C[C@@H]1CN([C@H](C)CO)C(=O)c2cccc(NC(=O)C3CCOCC3)c2O[C@H]1CN(C)S(=O)(=O)c1ccc(Cl)cc1,inactive: 0.999
11,CCC(=O)N1C[C@]2(C1)CN([C@H](CO)c1c2c2ccc(cc2n1C)OC)C(=O)CN1CCOCC1,inactive: 1.02
12,N=C(N)SCc1ccc(B(O)O)cc1,inactive: 0.993
13,C=C1C(=O)OC2CC3(C)CCCC(C)C3=CC12 (configuration not stated),inactive: 1.07
14,C[C@@H]1CN([C@H](C)CO)C(=O)Cc2cc(NC(=O)c3ccncc3)ccc2O[C@@H]1CN(C)Cc1ccc(Oc2ccccc2)cc1,inactive: 0.964
15,CC(=O)N[C@@H](C=O)[C@@H](O)[C@H](O)[C@H](O)CO,inactive: 1.02
16,COC(=O)[C@@H](C)S(=O)(=O)NC(=O)c1cnc2ccccn2c1=O,inactive: 0.996

row,SMILES,relative growth
1,COc1ccc2c3c([nH]c2c1)[C@@H](CO)N(C[C@]13CCN(CC1)C(=O)c1ccccc1F)C(=O)Nc1ccccc1F,inactive: 1.01
2,C[C@@H]1CN([C@H](C)CO)C(=O)c2cccc(NC(=O)Nc3ccccc3)c2O[C@@H]1CN(C)Cc1ccc(Oc2ccccc2)cc1,inactive: 0.965
3,CCOC(=O)C(=O)NCc1nnnn1-c1ccccc1,inactive: 1.01
4,O=C(C[C@H]1C=C[C@@H](NC(=O)c2cccc(F)c2)[C@@H](CO)O1)NCCN1CCCC1,inactive: 0.99
5,COc1ccc(S(=O)(=O)Nc2cccc3c2O[C@H](CN(C)S(=O)(=O)c2ccc(F)cc2)[C@H](C)CN([C@H](C)CO)C3=O)cc1,inactive: 0.974
6,C[C@H](CO)N1C[C@H](C)[C@H](CN(C)C(=O)C2CCCCC2)OCCCC[C@H](C)Oc2ccc(NS(=O)(=O)c3ccccc3)cc2C1=O,inactive: 0.999
7,C[C@@H]1CCCCO[C@H](CN(C)C(=O)Nc2ccc3c(c2)OCO3)[C@H](C)CN([C@H](C)CO)C(=O)c2cc(NS(=O)(=O)c3ccccc3)ccc2O1,inactive: 0.973
8,CN(C)CCCCCCNC(=O)[C@@H]1C[C@@H]2C(=O)NCC(=O)N2[C@@H]1c1cccc(OCCO)c1,inactive: 0.996
9,Cc1ccc(S(=O)(=O)N(C)C[C@@H]2Oc3ccc(NS(=O)(=O)c4cccs4)cc3CC(=O)N([C@H](C)CO)C[C@@H]2C)cc1,inactive: 1
10,C=CC[C@H](CC(=O)NCCO)C(=O)N[C@H](COC(=O)[C@@H](CC=C)CC(=O)OC(C)(C)C)Cc1ccccc1,inactive: 0.997
11,C[C@@H]1CN([C@@H](C)CO)C(=O)Cc2cc(NC(=O)Cn3cnnn3)ccc2O[C@H]1CN(C)C(=O)Nc1ccc(F)cc1,inactive: 1.01
12,CN(C)CC(=O)N[C@H]1C=C[C@H](CC(=O)O)O[C@H]1CO,inactive: 0.985
13,O=C(C[C@H]1C[C@H]2c3cc(NS(=O)(=O)c4ccc(F)cc4)ccc3O[C@H]2[C@@H](CO)O1)NCc1cccnc1,inactive: 1
14,C[C@@H]1CCCCO[C@@H](CN(C)C(=O)C2CCCCC2)[C@H](C)CN([C@@H](C)CO)C(=O)c2cc(NS(=O)(=O)c3ccc(F)cc3)ccc2O1,inactive: 1.01
15,COc1ccc(-c2cnc3c(c2)C(=O)N([C@@H](C)CO)C[C@@H](C)[C@H](CN(C)C(=O)C2CCOCC2)O3)cc1,inactive: 0.992
16,C[C@@H]1CCCCO[C@@H](CN(C)CC2CCCCC2)[C@@H](C)CN([C@H](C)CO)C(=O)c2cc(NC(=O)C3CCCCC3)ccc2O1,inactive: 0.957
